{
  "source": "the BET-seq Pho4 binding data (Le et al. 2018)",
  "note": "The other results are listed elsewhere or left out. These are noisy estimates, calculated here from bound and input reads.",
  "data": [
    {"target": "T1, Pho4 (S. cerevisiae) (UniProt P07270)", "T1 sequence": "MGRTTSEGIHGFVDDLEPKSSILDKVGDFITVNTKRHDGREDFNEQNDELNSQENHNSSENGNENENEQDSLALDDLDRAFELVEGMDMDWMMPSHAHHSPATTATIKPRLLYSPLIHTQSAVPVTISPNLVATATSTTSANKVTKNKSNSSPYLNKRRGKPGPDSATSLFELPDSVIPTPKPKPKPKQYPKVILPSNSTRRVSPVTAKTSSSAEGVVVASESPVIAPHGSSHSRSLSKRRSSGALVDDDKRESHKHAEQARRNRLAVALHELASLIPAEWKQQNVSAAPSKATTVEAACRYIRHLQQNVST", "experiment": "relative binding free energy (BET-seq); higher = weaker binding", "conditions": "reference: library average", "units": {"relative binding free energy": "kcal/mol"}, "values": [
      {"sequence": "AGTGGCACGTGACGGC", "relative binding free energy": -0.08},
      {"sequence": "GAGTGCACGTGGGGAA", "relative binding free energy": -0.08},
      {"sequence": "AATAGCACGTGGTAGT", "relative binding free energy": -0.17},
      {"sequence": "AGTTGCACGTGAGAGT", "relative binding free energy": 0.12},
      {"sequence": "GTGGTCACGTGTGTCA", "relative binding free energy": 0.14},
      {"sequence": "TGTAGCACGTGGCGTT", "relative binding free energy": -0.19},
      {"sequence": "GAAGGCACGTGGTACG", "relative binding free energy": -0.13},
      {"sequence": "TTGGCCACGTGGTAGG", "relative binding free energy": -0.03},
      {"sequence": "GCAGTCACGTGAGTGG", "relative binding free energy": 0.19},
      {"sequence": "TGTGACACGTGGCGGT", "relative binding free energy": -0.04},
      {"sequence": "GTAATCACGTGTTGGG", "relative binding free energy": 0.15},
      {"sequence": "GATTGCACGTGAGGTG", "relative binding free energy": 0.27},
      {"sequence": "GCGTGCACGTGGTAGT", "relative binding free energy": 0},
      {"sequence": "TGGTTCACGTGGGGTA", "relative binding free energy": 0.14},
      {"sequence": "CATGGCACGTGTTGGC", "relative binding free energy": -0.06},
      {"sequence": "CATGTCACGTGACAGG", "relative binding free energy": 0.35},
      {"sequence": "TAAGACACGTGGAAGG", "relative binding free energy": 0.12},
      {"sequence": "GGAAGCACGTGTGTGT", "relative binding free energy": -0.19},
      {"sequence": "TGGTGCACGTGTTTTA", "relative binding free energy": 0.05},
      {"sequence": "CTTTACACGTGTCGTT", "relative binding free energy": 0.13},
      {"sequence": "GCTTGCACGTGCGGGG", "relative binding free energy": -0.09},
      {"sequence": "GATTTCACGTGTATAG", "relative binding free energy": 0.25},
      {"sequence": "TGTCTCACGTGATAGT", "relative binding free energy": 0.34},
      {"sequence": "GTGGTCACGTGCTGCG", "relative binding free energy": -0.1},
      {"sequence": "TGAGGCACGTGTACGG", "relative binding free energy": -0.12},
      {"sequence": "TACGGCACGTGTGCGT", "relative binding free energy": -0.06},
      {"sequence": "TAGGTCACGTGACAGT", "relative binding free energy": 0.16},
      {"sequence": "TTCTGCACGTGTTCTG", "relative binding free energy": 0.02},
      {"sequence": "TTATCCACGTGTAAGG", "relative binding free energy": 0.29},
      {"sequence": "TTTGTCACGTGATAAG", "relative binding free energy": 0.29},
      {"sequence": "TCGGGCACGTGTGAGC", "relative binding free energy": -0.1},
      {"sequence": "GTTTTCACGTGCTAGG", "relative binding free energy": 0.24},
      {"sequence": "TAACTCACGTGAGGTT", "relative binding free energy": 0.22},
      {"sequence": "TTATGCACGTGGTTCA", "relative binding free energy": -0.03},
      {"sequence": "GCTTGCACGTGTTGTT", "relative binding free energy": 0.1},
      {"sequence": "TGATTCACGTGGTTAA", "relative binding free energy": 0.29},
      {"sequence": "AGGAACACGTGTGGCG", "relative binding free energy": 0.15},
      {"sequence": "GCTTACACGTGTTGGT", "relative binding free energy": 0.26},
      {"sequence": "CGTGGCACGTGCTTGT", "relative binding free energy": -0.13},
      {"sequence": "ATTTTCACGTGAGTGC", "relative binding free energy": 0.36},
      {"sequence": "TCCGTCACGTGTGGTT", "relative binding free energy": 0.19},
      {"sequence": "AGAAGCACGTGTGGCT", "relative binding free energy": 0.04},
      {"sequence": "TGCGCCACGTGTTGTG", "relative binding free energy": -0.11},
      {"sequence": "TTGAGCACGTGCTTGT", "relative binding free energy": -0.2},
      {"sequence": "CGTGGCACGTGGGTAA", "relative binding free energy": -0.17},
      {"sequence": "TGAACCACGTGTGTGT", "relative binding free energy": -0.18},
      {"sequence": "TTCGGCACGTGATGGA", "relative binding free energy": 0.01},
      {"sequence": "CTTGGCACGTGTGAGA", "relative binding free energy": -0.01},
      {"sequence": "TAGTTCACGTGGCAAT", "relative binding free energy": 0.32},
      {"sequence": "TTGTCCACGTGAGGTG", "relative binding free energy": 0.24},
      {"sequence": "TGATGCACGTGGATAG", "relative binding free energy": -0.17},
      {"sequence": "CATAGCACGTGGGGGC", "relative binding free energy": -0.11},
      {"sequence": "TGTGTCACGTGAGGAG", "relative binding free energy": 0.29},
      {"sequence": "GTTTTCACGTGACATT", "relative binding free energy": 0.42},
      {"sequence": "GGTAACACGTGGGAGA", "relative binding free energy": -0.01},
      {"sequence": "TTTAGCACGTGGCAGA", "relative binding free energy": -0.12},
      {"sequence": "GGGAGCACGTGCTGTA", "relative binding free energy": -0.19},
      {"sequence": "GTTTTCACGTGAATGA", "relative binding free energy": 0.4},
      {"sequence": "AGGGGCACGTGCTGAT", "relative binding free energy": -0.19},
      {"sequence": "AGTTTCACGTGGATAA", "relative binding free energy": 0.21},
      {"sequence": "GGAATCACGTGGGGTG", "relative binding free energy": 0.02},
      {"sequence": "GAAATCACGTGTCGGT", "relative binding free energy": 0.35},
      {"sequence": "CTGTTCACGTGAGGGG", "relative binding free energy": 0.41},
      {"sequence": "GTAAACACGTGGTGTG", "relative binding free energy": 0.01},
      {"sequence": "TGAGCCACGTGTTGTG", "relative binding free energy": -0.07},
      {"sequence": "TTAATCACGTGCGTTG", "relative binding free energy": 0.07},
      {"sequence": "TTGTTCACGTGTAATG", "relative binding free energy": 0.36},
      {"sequence": "GCGTGCACGTGTGTGT", "relative binding free energy": 0},
      {"sequence": "ATTGTCACGTGTCTGA", "relative binding free energy": -0.07},
      {"sequence": "GTACGCACGTGTTGTG", "relative binding free energy": -0.03},
      {"sequence": "TGTGTCACGTGTAGCA", "relative binding free energy": 0.1},
      {"sequence": "GGCTGCACGTGTAATG", "relative binding free energy": 0.22},
      {"sequence": "ATTGACACGTGATTGT", "relative binding free energy": 0.14}
    ]}
  ]
}
